# Source: patent publication US6025491A, “Water soluble onium salt of taxo-diterpenoid” (The Scripps Research Institute, priority 1998, dated 2000)
# Tested on: cell line panel including leukemia, ovarian, lung, and breast carcinoma cells
# Experiment: cytotoxicity (XTT), cell line panel
# Settings: discussion statement
smiles,measurement,value
"CC(=O)O[C@H]1C(=O)[C@@]2(C)[C@H]([C@H](OC(=O)c3ccccc3)[C@]3(O)C[C@H](OC(=O)[C@H](Oc4cccc[n+]4C)[C@@H](NC(=O)c4ccccc4)c4ccccc4)C(C)=C1C3(C)C)[C@]1(OC(C)=O)CO[C@@H]1C[C@@H]2O [taxol-2'-MPT, Taxol-2'-MPT (methylpyridinium tosylate)]","cytotoxicity (words, discussion)",lack of cytotoxicity

# Structures can show the parent of a compound that is named as a salt.
